Some of the results follow.
B1: PhoQ; a variant is named by its letters at X, in order, P23837 (parent)
chain: MKKLLRLFFPLSLRVRFLLATAAVVLVLSLAYGMVALIGYSVSFDKTTFRLLRGESNLFYTLAKWENNKLHVELPENIDKQSPTMTLIYDENGQLLWAQRDVPWLMKMIQPDWLKSNGFHEIEADVNDTSLLLSGDHSIQQQLQEVREDDDDAEMTHSVAVNVYPATSRMPKLTIVVVDTIPVELKSSYMVWSWFIYVLSANLLLVIPLLWVAAWWSLRPIEALAKEVRELEEHNRELLNPATTRELTSLVRNLNRLLKSERERYDKYRTTLTDLTHSLKTPLXXLQXXLRSLRSEKMSVSDAEPVMLEQISRISQQIGYYLHRASMRGGTLLSRELHPVAPLLDNLTSALNKVYQRKGVNISLDISPEISFVGEQNDFVEVMGNVLDNACKYCLEFVEISARQTDEHLYIVVEDDGPGIPLSKREVIFDRGQRVDTLRPGQGVGLAVAREITEQYEGKIVAGESMLGGARMEVIFGRQHSAPKDE

Variants of: B1
Assay: enrichment ratio after two sorts for PhoP signalling (ratio (wild type AVST 3.29)); higher = more functional
Details: with PhoP (E. coli)

Variant	enrichment ratio
KIGQ	≤ 0.25
VMLY	≤ 0.25
VYRY	≤ 0.25
QNCT	≤ 0.25
TLPV	≤ 0.25
NVPM	≤ 0.25
GKRW	≤ 0.25
INSV	≤ 0.25
ARIF	≤ 0.25
PAWG	≤ 0.25
HRFN	≤ 0.25
DRWK	≤ 0.25
CSFG	≤ 0.25
YEDL	≤ 0.25
HFSS	≤ 0.25
HRKW	≤ 0.25
QFCV	≤ 0.25
YSHT	≤ 0.25
LWIS	≤ 0.25
KMRI	≤ 0.25
QTTI	≤ 0.25
HKWT	≤ 0.25
IHAG	≤ 0.25
QNAR	≤ 0.25

Variant	enrichment ratio
TQLW	1.8
QTPA	≤ 0.25
SNCE	≤ 0.25
LQKY	≤ 0.25
FTMC	2.44
RYSL	≤ 0.25
WHHF	≤ 0.25
RSSL	≤ 0.25
GIFM	≤ 0.25
FEWK	≤ 0.25
NNHC	≤ 0.25
LYLP	≤ 0.25
RYRR	≤ 0.25
FHNN	≤ 0.25
DHVQ	≤ 0.25
AEGF	≤ 0.25
LAMW	≤ 0.25
FWRC	≤ 0.25
PVMQ	≤ 0.25
EQYP	≤ 0.25
AQIA	≤ 0.25
IANP	≤ 0.25
NPSK	≤ 0.25
FATK	≤ 0.25

Variant	enrichment ratio
YHVF	≤ 0.25
DKKD	≤ 0.25
EMDF	≤ 0.25
ITPQ	≤ 0.25
TMCE	21.2
ECNG	≤ 0.25
SLQS	≤ 0.25
IFYG	≤ 0.25
AFKK	≤ 0.25
QGSR	0.486
MSQF	≤ 0.25
DNAH	≤ 0.25
NWNF	≤ 0.25
TINR	15.4
VNIE	≤ 0.25
QTLF	≤ 0.25
HWRS	≤ 0.25
KIST	≤ 0.25
ETWI	≤ 0.25
LYTQ	≤ 0.25
HASW	≤ 0.25
EQIC	≤ 0.25
DRFA	≤ 0.25
EILQ	≤ 0.25

Variant	enrichment ratio
MVNP	≤ 0.25
IHIM	≤ 0.25
MGMK	≤ 0.25
GGLT	7.43
WHPG	≤ 0.25
FLDF	≤ 0.25
RSCT	≤ 0.25
PWRD	≤ 0.25
GNFQ	≤ 0.25
VNPG	≤ 0.25
QLNW	≤ 0.25
NCHD	≤ 0.25
NNWP	≤ 0.25
DCRV	≤ 0.25
DYND	≤ 0.25
GFMF	≤ 0.25
PAGW	≤ 0.25
YQYA	≤ 0.25
QVWF	≤ 0.25
KSCF	≤ 0.25
FQQL	≤ 0.25
MNGH	≤ 0.25
EEYT	≤ 0.25
TEFL	8.81

Variant	enrichment ratio
MPRN	≤ 0.25
LVQR	≤ 0.25
RRFR	≤ 0.25
RFAN	≤ 0.25
SGFA	≤ 0.25
PIIQ	≤ 0.25
WRAR	≤ 0.25
EIDG	≤ 0.25
PCTT	≤ 0.25
WNWT	≤ 0.25
HNLY	≤ 0.25
VAVH	≤ 0.25
NWQA	≤ 0.25
LNLC	≤ 0.25
GVVA	≤ 0.25
YISG	0.553
QVRF	≤ 0.25
QKSR	≤ 0.25
HSFR	≤ 0.25
MFDG	≤ 0.25
WDNI	≤ 0.25
MLHL	≤ 0.25
QYAR	≤ 0.25
INPA	≤ 0.25

Variant	enrichment ratio
PLAV	≤ 0.25
KYNH	≤ 0.25
HGYA	≤ 0.25
WIWM	≤ 0.25
FYCN	≤ 0.25
TANQ	5.01
PEQR	≤ 0.25
MLVQ	≤ 0.25
YAAN	≤ 0.25
RRMW	≤ 0.25
RMMS	≤ 0.25
KIAT	≤ 0.25
RETE	≤ 0.25
PWQA	≤ 0.25
VMYL	≤ 0.25
DLMT	≤ 0.25
TLFG	≤ 0.25
KVMG	≤ 0.25
NLIL	≤ 0.25
VNSE	≤ 0.25
ERTQ	≤ 0.25
MIIC	≤ 0.25
WEDS	≤ 0.25
EEYF	≤ 0.25

Variant	enrichment ratio
IMHT	≤ 0.25
EDEH	≤ 0.25
YHGL	≤ 0.25
PVEN	≤ 0.25
AVPV	0.48
MICP	≤ 0.25
RNWV	≤ 0.25
DFRV	≤ 0.25
TSSF	9.67
SLCG	6.01
AWIE	≤ 0.25
LQTQ	≤ 0.25
SRHN	≤ 0.25
RMGF	≤ 0.25
TNHL	≤ 0.25
YWHE	≤ 0.25
WCWK	≤ 0.25
HGTR	≤ 0.25
FPKF	≤ 0.25
FWEC	≤ 0.25
RGFQ	≤ 0.25
WQAK	≤ 0.25
PAKQ	≤ 0.25
TDHN	≤ 0.25

Variant	enrichment ratio
LEAH	0.895
WYMP	≤ 0.25
VTRW	≤ 0.25
HWLV	≤ 0.25
PVDS	≤ 0.25
PDQE	≤ 0.25
SYWW	≤ 0.25
LMNY	≤ 0.25
TRFE	≤ 0.25
RKSS	≤ 0.25
PLNT	≤ 0.25
MIYQ	4.79
NGFP	≤ 0.25
RYVF	≤ 0.25
SWYM	≤ 0.25
MHDR	≤ 0.25
CLVL	≤ 0.25
TYEN	≤ 0.25
QIRC	≤ 0.25
YNML	13.9
EPCR	≤ 0.25
GDRI	≤ 0.25
ASTK	≤ 0.25
FVHT	≤ 0.25

Variant	enrichment ratio
YWNN	≤ 0.25
FCMA	5.8
GDLN	≤ 0.25
VRMY	0.937
TGYN	4.73
QKPH	≤ 0.25
QHVT	≤ 0.25
AAAK	≤ 0.25
MEYP	≤ 0.25
EMQF	≤ 0.25
HMPK	≤ 0.25
GGRD	≤ 0.25
AENI	≤ 0.25
HQLE	≤ 0.25
QNCL	≤ 0.25
FWSQ	≤ 0.25
INQC	≤ 0.25
MQQS	≤ 0.25
GWAI	≤ 0.25
PPCE	≤ 0.25
YCFM	≤ 0.25
IFPP	≤ 0.25
EDPF	≤ 0.25
SDQS	≤ 0.25

Variant	enrichment ratio
EDHI	≤ 0.25
WGIN	≤ 0.25
VFCQ	≤ 0.25
SEDG	≤ 0.25
RTAG	≤ 0.25
PEFE	≤ 0.25
TWYF	≤ 0.25
WFWK	≤ 0.25
RNRM	≤ 0.25
YFMV	≤ 0.25
NMAY	≤ 0.25
PPRS	≤ 0.25
AQGK	≤ 0.25
FGHE	≤ 0.25
QHPD	≤ 0.25
ICTS	≤ 0.25
PRHP	0.827
ERYA	≤ 0.25
HQAW	≤ 0.25
IQWC	≤ 0.25
KIIM	≤ 0.25
IINR	≤ 0.25
HRCA	≤ 0.25
DREH	≤ 0.25

Variant	enrichment ratio
HIVS	2.31
MEPK	≤ 0.25
DMCE	≤ 0.25
NMIP	≤ 0.25
MPRR	≤ 0.25
SIAN	22.8
WHTR	≤ 0.25
HSAQ	≤ 0.25
PVSN	0.289
LTMK	≤ 0.25
RTNL	≤ 0.25
TDHS	≤ 0.25
FPFA	≤ 0.25
EVMD	≤ 0.25
GSRD	≤ 0.25
VFEQ	≤ 0.25
SWSC	≤ 0.25
DMWI	≤ 0.25
IMKD	≤ 0.25
SDWE	≤ 0.25
LAQH	≤ 0.25
RFEH	≤ 0.25
TDDH	≤ 0.25
QNRK	≤ 0.25

Variant	enrichment ratio
LIGC	≤ 0.25
IKLN	≤ 0.25
VAVW	≤ 0.25
FWQY	≤ 0.25
HMWH	≤ 0.25
ILPL	≤ 0.25
EQVS	≤ 0.25
YRYH	≤ 0.25
HKNY	≤ 0.25
SDQQ	≤ 0.25
PPML	≤ 0.25
LHEY	≤ 0.25
DMPA	≤ 0.25
KENL	≤ 0.25
KMWT	≤ 0.25
HVSP	≤ 0.25
FTWL	≤ 0.25
ESVT	≤ 0.25
NGMS	≤ 0.25
WVYV	≤ 0.25
LDQV	≤ 0.25
EGSF	≤ 0.25
MDAA	≤ 0.25
MMLH	≤ 0.25

Variant	enrichment ratio
EHWR	≤ 0.25
AAMS	1.14
YNHA	≤ 0.25
VIER	≤ 0.25
RGME	≤ 0.25
RWNR	≤ 0.25
TFAN	≤ 0.25
EHAY	≤ 0.25
EVVK	≤ 0.25
AKPW	≤ 0.25
PDHQ	≤ 0.25
DYIC	≤ 0.25
YWVD	≤ 0.25
FRMY	≤ 0.25
MWGF	≤ 0.25
VNTA	≤ 0.25
KVIA	≤ 0.25
HAVF	≤ 0.25
